Results taken from US20030180808A1, “Drug signatures” (priority 2002, published 2003).

System: liver mRNA expression
Experiment: Rat liver gene expression on Rat Toxicology LifeArrays, distinction metric
Settings: for Distinctiveness: vs. vehicle in males, negative = upregulation
[1] = clone 700146486 Rat mRNA for acyl-CoA hydrolase
[2] = clone 700187344 Rat pyruvate dehydrogenase kinase isoenzyme 4 (PDK4) mRNA
[3] = clone 700199767 Rat mitochondrial 3-hydroxy-3-methylglutaryl-CoA synthase mRNA
[4] = clone 700247611 Rat Wistar peroxisomal enoyl hydratase-like protein (PXEL) mRNA
[5] = clone 700296634 Rat cytochrome P450 mRNA
[6] = clone 700296865 Rat cytochrome P450 mRNA
[7] = clone 700397284 Rat mRNA for mitochondrial long-chain 3-ketoacyl-CoA thiolase β-subunit of mitochondrial trifunctional protein
[8] = clone 700481210 Rat mRNA for mitochondrial 3-2-trans-enoyl-CoA isomerase
[9] = clone 700505778 Rat liver fatty acid binding protein (FABP) mRNA
[10] = clone 700628567 Rat mRNA for 2,4-dienoyl-CoA reductase precursor
[11] = clone 700935113 Rat peroxisomal enoyl-CoA: hydrotase-3-hydroxyacyl-CoA bifunctional enzyme mRNA
[12] = clone 700935253 Rat mRNA for mitochondrial isoform of cytochrome b5
[13] = clone 701196893 Rat Cyp4a locus, encoding cytochrome P450 (IVA3) mRNA
[14] = clone 701197528 Rat mRNA for Sulfotransferase K2
[15] = clone 701444552 Rat cytochrome P450-LA-omega (lauric acid omega-hydroxylase) mRNA
[16] = clone 701466373 Rat cytochrome P450-LA-omega (lauric acid omega-hydroxylase) mRNA
[17] = clone 701466951 Rat mRNA for acyl-CoA hydrolase
[18] = clone 701469162 Rat peroxisomal enoyl-CoA: hydrotase-3-hydroxyacyl-CoA bifunctional enzyme mRNA
[19] = clone 701507855 Rat mRNA for cytochrome P452
[20] = clone 701512110 Rat peroxisomal membrane protein Pmp26p (Peroxin-11)
[21] = clone 701531239 Rat carnitine octanoyltransferase mRNA
[22] = clone 701606788 Mouse peroxisomal long chain acyl-CoA thioesterase Ib (Ptelb) gene
[23] = clone 701646795 Rat acyl-CoA oxidase mRNA
[24] = clone 701826047 hypothetical protein Rv3224
[25] = clone 701880740 Unnamed protein product

SMILES | Distinctiveness [1] | Distinctiveness [2] | Distinctiveness [3] | Distinctiveness [4] | Distinctiveness [7] | Distinctiveness [8] | Distinctiveness [9] | Distinctiveness [10] | Distinctiveness [11] | Distinctiveness [12] | Distinctiveness [14] | Distinctiveness [17] | Distinctiveness [18] | Distinctiveness [19] | Distinctiveness [20] | Distinctiveness (clone 701512411 Incyte EST) | Distinctiveness [21] | Distinctiveness [22] | Distinctiveness [23] | Distinctiveness [24] | also measured
Cc1ccc(C)c(OCCCC(C)(C)C(=O)O)c1 [Gemfibrozil, gemfibrozil] | – | – | – | – | – | – | – | – | – | – | – | – | – | – | – | – | – | – | – | – | number of genes induced that were not induced by other PPARα agonists (rat liver, 8 of the 13 involved in cholesterol and fatty acid biosynthesis): 13 genes
CCOC(=O)C(C)(C)Oc1ccc(Cl)cc1 [Clofibrate, clofibrate] | −2.20 | −16.42 | −9.90 | −10.02 | −4.48 | −11.57 | −0.23 | −2.16 | −4.82 | −4.98 | −29.46 | −7.60 | −5.72 | −11.54 | −8.16 | −6.28 | −7.50 | −6.91 | −8.02 | −5.56 | Distinctiveness [5]: −15.64; Distinctiveness [6]: −17.07; Distinctiveness [13]: −15.66; Distinctiveness [15]: −15.09; Distinctiveness [16]: −23.12; Distinctiveness [25]: −1.20
CC(C)OC(=O)C(C)(C)Oc1ccc(C(=O)c2ccc(Cl)cc2)cc1 [Fenofibrate] | −10.45 | −13.16 | −8.72 | −16.48 | −14.54 | −19.18 | −14.06 | −8.98 | −10.93 | −13.15 | −24.19 | −9.93 | −7.82 | −32.35 | −10.83 | -11.10 | −18.56 | −7.74 | −10.07 | −12.66 | Distinctiveness [5]: −19.23; Distinctiveness [6]: −25.96; Distinctiveness [13]: −21.68; Distinctiveness [15]: −22.11; Distinctiveness [16]: −24.45; Distinctiveness [25]: −17.88
CC(C)(C)CC(C)(C)c1ccc(O)cc1 [OP] | −2.66 | −0.19 | 1.97 | 8.18 | 1.46 | 2.16 | 3.92 | 2.72 | 1.40 | 1.37 | 1.16 | −1.06 | 1.22 | 1.43 | 1.31 | 0.96 | 3.56 | 1.91 | 0.81 | 1.36 | Distinctiveness [25]: 3.42
